Test results as given in the RNAGym collection of RNA variant scans (doi:10.7554/elife.90254).
The source gives no read counts; variants with many changes may rest on few reads.

B1: LINE1-mini (parent)
chain: GGCAGAGCUCAACACAGCGUGGCAAAGUGGCUGUGGCUAGACUGCC

Variants of: B1
Assay: self-cleavage, relative activity (ratio to wild type); higher = more cleavage; in vitro, sequencing; the parent is a self-cleaving ribozyme

Row | Variant | self-cleavage
1 | GGCAGAGUUCGAGCCAGCGUGGCAAAGUGGCUGUGGCUAGACUGCC [C8U A11G C13G A14C] | 0.02
2 | GGCAGAGGUCAACACAGCGUGGCAAAGGGGCUGUGGCUAGAUUGCC [C8G U28G C42U] | 0.02
3 | GGCAGAGGUCAACACAGCGUGGCAAAGUGGCGAUGGCUAGACUUCC [C8G U32G G33A G44U] | 0.04
4 | GGCAGAGGUCAACACAGCGAGGCAUCGUGGCUGUGGCUAGACUGCC [C8G U20A A25U A26C] | 0.06
5 | GGCAGAGGUCAACACAGCGCGGCAAAGUGACUGUGGCCAGACUACC [C8G U20C G30A U38C G44A] | 0.01
6 | GGCAGAGGUCAACACAGCGUGGCAAAGUGGCUGUGGCUAGACAGCG [C8G U43A C46G] | 0.04
7 | GGCAGAGUUCGACACAGAGUGGCAAAGUGGCUGUGGCUAGACUGCC [C8U A11G C18A] | 0.01
8 | GGCAGAGGGCAACACAGCUUGGCAAAGUGGUCGUGGCUAGACUGCC [C8G U9G G19U C31U U32C] | 0
9 | GGCAGAGGUCAACACAGCGUGGCAAAGUGGCUGCGGCUAGACUGCU [C8G U34C C46U] | 0.11
10 | GGCAGAGGGUAACACUGCGUGGCAAAGUGGCUGUGGCGAGACUGCU [C8G U9G C10U A16U U38G C46U] | 0.03
11 | GGCAGAGUUCCACACACCGUUGCAAAGGGGCUGUGGCUAGACUGCC [C8U A11C G17C G21U U28G] | 0.02
12 | GGCAGAGUUCCACACAGCAUGGCAAAGUGGCUGUGGCUAUACUGCC [C8U A11C G19A G40U] | 0.04
13 | GGCAGAGGUCAACACAGCGUGGCAAAGUGGCUGCGGCUAGACUACC [C8G U34C G44A] | 0.04
14 | GGCAGAGGUCAACACAGCGUGGCAAAGUGGCAGUGGCGAGACUGCC [C8G U32A U38G] | 0.02
15 | GGCAGAGGUCAACACAGCGUGGCAAAGUGGCUGGGGCUAGUCUGCC [C8G U34G A41U] | 0.04
16 | GGCAGAGGUCAACACAGCGUGGCAAAGUGGCUGUGGCUAGACCGCA [C8G U43C C46A] | 0.01
17 | GGCAGAGGUCAACACAGCGUGGCAAAGUGGCGGUGGCUAGAGUGCC [C8G U32G C42G] | 0.01
18 | GGCAGAGUUCCACACAGCGUGGCAAGGUGGCUGUGGCCAGACUGCC [C8U A11C A26G U38C] | 0.01
19 | GGCAGAGGGCAACACAGCGUGGCAAAGUGGCUGUGGCAAGACUGCC [C8G U9G U38A] | 0.01

Row | Variant | self-cleavage
20 | GGCAGAGUUCCACACAGCGUGGCAAAUUGGUUGUGGCUAGACUGCC [C8U A11C G27U C31U] | 0.01
21 | GGCAGAGUUCGAGACAGCGUGGCAAAGUGGCUGUGGCUAGACUGCC [C8U A11G C13G] | 0.1
22 | GGCAGAGUUCCGCACAGUGUGGCAAAGUGGCUGUGGAUAGACCGCC [C8U A11C A12G C18U C37A U43C] | 0.01
23 | GGCAGAGUUCCAAACAGCGUGGAAAAGUGGCUGUGGCUAGAAUGCC [C8U A11C C13A C23A C42A] | 0.02
24 | GGCAGAGUUCGACACAGCGUGGCAAAGUGGCUGAGGUUAGACUGCC [C8U A11G U34A C37U] | 0.02
25 | GGCAGAGUUCGACACAGUGUAGCAAAGUGGCUGUGGCUAGACUGCC [C8U A11G C18U G21A] | 0.02
26 | GGCAGAGGUCAACACAGCGUGGCAAAGUGGCUGGGGCUAAACCGCC [C8G U34G G40A U43C] | 0
27 | GGCAGAGUUCGACAUAGCGUGGCAAAGUGGCUGUGGCAAGACUGCC [C8U A11G C15U U38A] | 0.01
28 | GGCAGAGGGCAACACAACGUGGCAAAGUGGCUGUGGCUAGACUGCC [C8G U9G G17A] | 0.07
29 | GGCAGAGUUCUACACAGCGUGGAAAAGUGGCUGUGGCUAGACUGCC [C8U A11U C23A] | 0.01
30 | GGCAGAGUUCCACACAGCCUGGCAAAGUGGCUAUGGCUAGACUGCC [C8U A11C G19C G33A] | 0.05
31 | GGCAGAGUUCGACACAGCGUGGCAAAGUGGCUGUGGCUAGACUGUC [C8U A11G C45U] | 0
32 | GGCAGAGGUCAACACAGCGUGGCAAAGUGGCGGUGGUUAGACUGCC [C8G U32G C37U] | 0.06
33 | GGCAGAGUUCUCCACAGCGUGGCAAAGUGGCUGUGGCUAGACUGCC [C8U A11U A12C] | 0.01
34 | GGCAGAGGUCAACACAGCGCGGCAGAGUGACUGUGGCUGGACUGCC [C8G U20C A25G G30A A39G] | 0.02
35 | GGCAGAGGGCAUCACAGCGUGGCAAAGUGGCUGUGGCUCGACUGCC [C8G U9G A12U A39C] | 0.02
36 | GGCAGAGUUCUACACACCGUGGCAAAGUGGCUGUGGCUAAACUGCC [C8U A11U G17C G40A] | 0
37 | GGCAGAGGUCAACACAGCGCGGCAAUGUGGCUGUGGCUAGACUGCC [C8G U20C A26U] | 0.02
38 | GGCAGAGGUCAACACAGCGCGGCAAAGUGGCUGUGGAUAGACUGCC [C8G U20C C37A] | 0.02

Row | Variant | self-cleavage
39 | GGCAGAGGUCAACACAGCGUGGCAAAGUGGCUGUGGCCUGACUGGC [C8G U38C A39U C45G] | 0.03
40 | GGCAGAGUUCGACACAGCGUGGCAAAGUGGCUGUGGCUAAGCUGCC [C8U A11G G40A A41G] | 0
41 | GGCAGAGGUCAACACAGCGUGGCAAAGCGCCUGUGGCGAGACCGCC [C8G U28C G30C U38G U43C] | 0.04
42 | GGCAGAGGGCAACAUAGCGUGGCAAAGUGGCUGUGGCUAGACUGCC [C8G U9G C15U] | 0.03
43 | GGCAGAGUUCGACAUAGCCUGGCAAAGUGGCGGUGGGUAGACUGCC [C8U A11G C15U G19C U32G C37G] | 0.02
44 | GGCAGAGUUCCACACAGCGUGGCAAUGUGGCUCUGGCUUGACUGCC [C8U A11C A26U G33C A39U] | 0.01
45 | GGCAGAGUUCGACAGAGCGUGGCAAAGUGGCUGUGGCUAGACUGCC [C8U A11G C15G] | 0.02
46 | GGCAGAGUUCUACACAGCAUGGCAAAGUGGCUGUGGCAAGGUUGAC [C8U A11U G19A U38A A41G C42U C45A] | 0.01
47 | GGCAGAGUUCGACACAGCGUGGCAAAGUGGCUGUGGCUAGACAGCC [C8U A11G U43A] | 0
48 | GGCAGAGGUCAACACAGCGCGGCAAAGUGUCAGAGGCUAGGCUGCC [C8G U20C G30U U32A U34A A41G] | 0.05
49 | GGCAGAGGGCAACAAAGCAUGGGAAACUGGCUGAGGCUAGACUGCC [C8G U9G C15A G19A C23G G27C U34A] | 0.02
50 | GGCAGAGGUCAACACAGCGCGGCACAGUGGCUGUGGCUAGACUGCC [C8G U20C A25C] | 0.05
51 | GGCAGAGGGCAACACAGCGCGGCCAAGUGGCUGUGGCUAGACUGCC [C8G U9G U20C A24C] | 0.01
52 | GGCAGAGGUCAACACAGCGUGGCAAAGAGGCUGUGGCUAGCCUGCC [C8G U28A A41C] | 0.07
53 | GGCAGAGUUCUACACAGCGUGGCGAAGUAGCUGUGGCUAGACUGCC [C8U A11U A24G G29A] | 0.03
54 | GGCAGAGGGCAAGACAGCGUGGCAAAGUGGCUGUGGCUAGACUGCU [C8G U9G C13G C46U] | 0.07
55 | GGCAGAGGUCAACACAGCGUGGCAAAGUGGCCGUGGCUAUACUGCC [C8G U32C G40U] | 0.04
56 | GGCAGAGGUCAACACAGCGUGGCAAAGUGGCGGGGGCUAGACUGCC [C8G U32G U34G] | 0.02
